Laboratory results as given in PubChem BioAssay AID1508642 (National Center for Advancing Translational Sciences (NCATS), 2021).
Among all 43,000 compounds or so, about 200 (0.47%) were called active. About 12% were inconclusive and are not listed. The call rests on the fitted dose curve; in most records, active means well fitted cell-killing curve with a large enough effect; inconclusive means small, poorly fitted or top-dose-only effect, or effect the other way; inactive means flat fitted curve, though single readings scatter. The list shows a part of the results.

experiment: Cell viability qHTS assay in S16 Pmp22-F2sN cells; settings: S16 Pmp22-F2sN Schwann cells (luciferase reporters placed in the Pmp22 gene) viability, CellTiter-Glo, 24 h; series mostly up to 57.5 µM; activity change, negative = cytotoxicity: at the top concentration; further: nearly all actives have a fitted effect of over 65% in size
Procedure, shortened: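 Rat S16 Schwann reporter line, 24 h treatment with library compounds delivered at 23 nL per well. Cell viability by CellTiter-Glo luminescence.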
On the % scale 0 is the no-effect control and ±100 the full control effect; potency means the concentration at half of the fitted maximal effect.

Row | Structure (SMILES) | activity change, negative = cytotoxicity | Potency
1 | CCOc1ccc(OCC)c(NC(=O)CC(C)n2nc(C)cc2C)c1 (centres undefined) | inactive: -0.878% | 
2 | Cc1cc(C)cc(Oc2coc3cc(OCC(=O)NC4CCCCC4)ccc3c2=O)c1 | inactive: -24.4% | 
3 | Cc1cc(N)c(-n2cc3c(c2-c2ccc(Br)cc2)c(=O)n(C)c(=O)n3C)cc1C | inactive: -14.3% | 
4 | Clc1cccc(CNc2cc(-c3ccccc3)nc3nncn23)c1 | inactive: -11% | 
5 | Cc1cc(C)c(NC(=O)CCn2c(=O)c3cccn3c3cccnc32)c(C)c1 | inactive: 11.1% | 
6 | OCCN1CCN(C(c2ccccc2Cl)c2sc3nc(-c4ccco4)nn3c2O)CC1 (centres undefined) | inactive: 0.142% | 
7 | CCOc1ccc(N(CC)C(=O)C2CCN(S(=O)(=O)c3cccc4nonc34)CC2)cc1 | inactive: 17% | 
8 | COc1cc(NC(=O)Cn2nnc(-c3ccc(C(F)(F)F)cc3)n2)c(C(=O)O)cc1OC | inactive: 0.258% | 
9 | CCC(=O)n1nc(-c2cccnc2)nc1NCc1ccc(F)cc1 | inactive: 0.0668% | 
10 | O=C(Cn1c(=O)oc2cc(S(=O)(=O)NCc3ccccc3)ccc21)Nc1ccc(F)c(Cl)c1 | inactive: -1.98% | 
11 | COc1ccc(CCC(=O)NC2CC(=O)N(c3cccc(F)c3)C2)cc1 (centres undefined) | inactive: 0.993% | 
12 | Cc1ccc(NC(=O)c2c(C)oc3ncnc(N4CCCCC4)c23)cc1Cl | inactive: 17.7% | 
13 | Cc1ccc(-n2nc(C)c3c(C)cc(=O)n(CC(=O)N4CCCc5ccccc54)c32)cc1 | inactive: -6.2% | 
14 | CCn1cc(S(=O)(=O)c2cccc(Cl)c2)c(=O)c2cc(F)c(N3CCC(C)CC3)cc21 | inactive: 3.97% | 
15 | COc1ccc(C)cc1NC(=O)CCc1c(C)nn(-c2ccc(N3CCOCC3)nn2)c1C | inactive: -15.8% | 
16 | O=C(Cc1ccc(Cl)cc1)Nc1nnc2n1CCS2 | inactive: -5.08% | 
17 | CCc1ccc(NC(=O)Cn2ccn(Cc3ccccc3OC)c(=O)c2=O)cc1 | inactive: 7.36% | 
18 | COc1cccc(CNC(=O)Cc2csc3ccccc23)c1OC | inactive: 3.38% | 
19 | Cc1cc(C)c(NS(=O)(=O)c2ccc(-c3cnc(C4CC4)o3)cc2)c(C)c1 |  | active: 0.794 µM
20 | COc1ccc(NC(=O)C(=O)NCC2(c3ccc(OC)c(OC)c3)CCCC2)cc1 | inactive: -0.905% | 
21 | O=C(COCc1cc(-c2cccs2)on1)NCc1ccc(Cl)cc1 | inactive: 7.57% | 
22 | COc1ccc(Cl)cc1NC(=O)CCS(=O)(=O)c1cccc2nonc12 | inactive: 20.7% | 
23 | COCCNC(=O)CCC(=O)N1Cc2cccc(OC)c2Oc2ncccc21 | inactive: 2.54% | 
24 | CCSc1nnc2c(n1)OC(c1ccc(C)cc1)N(C(C)=O)c1ccccc1-2 (centres undefined) | inactive: -25.1% | 
25 | COc1ccc(CNC(=O)CCCN2C(=O)CSc3c2c(C)nn3-c2ccccc2)c(OC)c1 | inactive: 26.2% | 

Row | Structure (SMILES) | activity change, negative = cytotoxicity | Potency
26 | O=c1n(Cc2cccc(F)c2)c2ccccc2c2nc(-c3ccccc3)nn12 | inactive: 7.78% | 
27 | CN(C)C=NC(=O)c1cc2c(n(-c3ccccc3)c1=O)CC(C)(C)CC2=O | inactive: 17.3% | 
28 | Cc1c(CC(=O)N2CCCCC2)c(=O)oc2c(C)c3occ(C(C)(C)C)c3cc12 | inactive: 0.964% | 
29 | CCOc1ccc(CCNC(=O)CSc2n[nH]c(-c3ccccc3)n2)cc1OCC | inactive: 0.408% | 
30 | Cc1ccc(CN2CCSc3ccc(C(=O)NCCc4ccccc4)cc32)cc1 | inactive: 4.41% | 
31 | COc1ccc(CN(C(=O)Nc2cccc(Cl)c2)c2ccccn2)cc1OC | inactive: -23.9% | 
32 | COc1cccc(CSc2nc3n(n2)C(c2cccc(F)c2)C(C(=O)Nc2ccccc2C)=C(C)N3)c1 (centres undefined) | inactive: 7.32% | 
33 | CN(C)c1cc2c(cc1NS(=O)(=O)c1ccccc1)n(C)c(=O)n2C | inactive: -5.69% | 
34 | CCOc1ccc(-n2c(SCC(=O)NCc3ccco3)nc3c([nH]c4ccccc43)c2=O)cc1 | inactive: 8.35% | 
35 | Cc1cccc(-c2nnc3n(CCc4ccccc4)c(=O)c4ccccc4n23)c1 | inactive: -20.9% | 
36 | COc1ccc2c(Sc3ccccc3)c(C(=O)NCc3ccc(OC(C)C)cc3)[nH]c2c1 | inactive: 3.94% | 
37 | COc1cccc(CNC(=O)c2cc3n(n2)CCCN(Cc2ccc(C)cc2)C3=O)c1OC | inactive: -7.07% | 
38 | CCN(Cc1ccccc1)C(=O)Cn1c(=O)n(-c2ccc(OC)cc2OC)c(=O)c2c(C)c(C)sc21 | inactive: -29.4% | 
39 | CCOc1ccc(NC(=O)c2c(NC(=O)Cc3ccccc3)sc3c2CCCC3)cc1 | inactive: 6.14% | 
40 | COc1ccc(Cl)cc1NC(=O)Cn1c(=O)n(Cc2ccco2)c(=O)c2ccc(C(=O)NC3CCCC3)cc21 | inactive: -0.163% | 
41 | CCOc1ccc(CNC(=O)c2ccc(-c3nc(CSc4ccc(C)cc4)c(C)o3)cc2)cc1 | inactive: -0.319% | 
42 | Cc1ccc(NC(=O)c2sc(-n3nc(C)c(Cc4ccc(Cl)cc4)c3C)nc2C)cc1 | inactive: 1.43% | 
43 | Cc1ccc(-n2c3nc(=O)[nH]c(=O)c-3cc3c(Cl)cccc32)cc1 | inactive: -5.14% | 
44 | Cc1ccc(C)c(NC(=O)N2CCN(C)c3ncccc32)c1 | inactive: 12.6% | 
45 | Cc1ccc(Cn2ccnc2SCC(=O)Nc2ccc3c(c2)OCO3)cc1 | inactive: -2.72% | 
46 | CCc1nc2nc(C)cc(Nc3ccc(Br)cc3F)n2n1 | inactive: -6.69% | 
47 | CCCCn1c2ccccc2c2nnc(SCC(=O)Nc3ccc(NC(C)=O)cc3)nc21 | inactive: -20.9% | 
48 | Cc1oc2ccc(O)c(CN(C)Cc3ccccc3)c2c1C(=O)Nc1cccc(Cl)c1C | inactive: -22.4% | 
49 | Cc1ccc2c(=O)c(C(=O)c3ccc(F)cc3)cn(CC(=O)NC3CCCCC3)c2n1 | inactive: -2.4% | 
